Measurements taken from the supplement of paper PMC8183993.
“And” between values parts separate entries of the source, which are not always exact repeats. Equal entries are not always repeated. Structures can show the parent of a compound that is named as a salt. ± gives the standard deviation of the averaged measurements. In all, about 3,200 compounds were measured (“nuclei count (viability) relative to DMSO”: median about 99, lowest 2% from about 16 on). The list shows a part of the results.

system: U2OS; assay: nuclei count (viability) relative to DMSO (% of DMSO); higher = more viable cells; details: 10 µM; 24 h
Experimental: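 Primary image-based screen in U2OS cells: compounds at 10 uM for 24 h, then a 1 h o-propargyl-puromycin (OPP) pulse, click labelling, and high-throughput microscopy. Mean cytoplasmic OPP intensity and nuclei count were normalised to DMSO wells within each plate (DMSO = 100) and averaged over triplicate plates.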

| SMILES | nuclei count |
| --- | --- |
| CC1(C)O[C@H]2CC(=O)OC[C@]23[C@H]2CC[C@@]4(C)[C@H](c5ccoc5)OC(=O)[C@H]5O[C@]54[C@]2(C)C(=O)C[C@@H]13 [Limonin] | 95.5 |
| CCCCCCOC(=O)NC(=N)c1ccc(NCc2nc3cc(C(=O)N(CCC(=O)OCC)c4ccccn4)ccc3n2C)cc1 [BIBR-1048 (Dabigatran etexilate, Pradaxa)] | 98.1 |
| CC(C)C[C@@H](C(=O)N[C@H](C(=O)OC1CCCC1)c1ccccc1)[C@H](O)C(=O)NO [Tosedostat (CHR2797)] | 92.8 |
| CC(C)C[C@@H](C(=O)N[C@H](C(=O)OC1CCCC1)c1ccccc1)[C@H](O)C(=O)NO | 78.4 |
| COc1ccc(O)cc1 [Mequinol] | 96 |
| CCCCCCCCCCCCCCCCCCCCCCO [Docosanol (Abreva)] | 106 |
| O=[N+]([O-])c1ccc(Oc2ccc(Br)cc2)c(C(O)P(=O)(O)O)c1 (stereo unspecified) | 106 |
| Cc1c(-c2ccccc2)oc2c(C(=O)OCCN3CCCCC3)cccc2c1=O [Flavoxate hydrochloride] | 118 |
| Cn1cnc2c1c(=O)[nH]c(=O)n2C [Theobromine] | 106 |
| CC1=NN(c2ccccc2)C(=O)C1 | 99.1 ± 8.2 |
| CCN(CC)CCNC(=O)c1cc(Cl)c(N)cc1OC [Metoclopramide monohydrochloride] | 103 |
| CCOc1ccc2ccccc2c1C(=O)N[C@@H]1C(=O)N2[C@@H]1SC(C)(C)[C@@H]2C(=O)O [Nafcillin sodium salt monohydrate] | 112 |
| CN(C)C/C=C(/c1ccc(Br)cc1)c1cccnc1 [Zimelidine dihydrochloride monohydrate] | 105 |
| CN(C)C/C=C(/c1ccc(Br)cc1)c1cccnc1 [Zimelidine dihydrochloride] | 104 |
| CC(C)(CO)C(O)C(=O)NCCCO (stereo unspecified) [Panthenol (D)] | 105 |
| CCN(CC)CCOC(=O)c1cc(Cl)c(N)cc1OC [SDZ 205-557 hydrochloride] | 104 |
| C=C1/C(=C\C=C2/CCC[C@]3(C)[C@@H]([C@H](C)CCCC(C)C)CC[C@@H]23)C[C@@H](O)C[C@@H]1O [Alfacalcidol] | 97.2 |
| Cc1ccc2c(c1)c1c3n2CCNC3CCC1 (stereo unspecified) [Pirlindole mesylate] | 106 ± 1.8 |
| CC(=O)N[C@@H](Cc1c[nH]c2ccccc12)C(=O)OCc1cc(C(F)(F)F)cc(C(F)(F)F)c1 | 114 |
| CO[C@H]1/C=C\C=C(/C)C(=O)NC2=CC(=O)C(NCCN(C)C)=C(C[C@@H](C)C[C@H](OC)[C@H](O)[C@@H](C)/C=C(\C)[C@@H]1OC(N)=O)C2=O [17-DMAG HCl (Alvespimycin)] | 35.6 |
| CCC[C@@H]1C[C@@H](C(=O)N[C@@H]([C@H]2O[C@H](SC)[C@H](O)[C@@H](O)[C@H]2O)[C@H](C)Cl)N(C)C1 [Clindamycin HCl (Dalacin)] | 97.5 |
| CCC[C@@H]1C[C@@H](C(=O)N[C@@H]([C@H]2O[C@H](SC)[C@H](O)[C@@H](O)[C@H]2O)[C@H](C)Cl)N(C)C1 [Clindamycin hydrochloride] | 104 |
| O=C(N[C@H](CO)[C@H](O)c1ccc([N+](=O)[O-])cc1)C(Cl)Cl [Chloramphenicol] | 108 |
| CN(C)CCC=C1c2ccccc2COc2ccccc21 [Doxepin hydrochloride] | 96.1 ± 1 |
| CN1CCC[C@@H]1Cc1c[nH]c2ccc(CCS(=O)(=O)c3ccccc3)cc12 [Eletriptan hydrobromide] | 96.2 |
| CC(C)[N+](C)(CCOC(=O)C1c2ccccc2Oc2ccccc21)C(C)C [Propantheline bromide] | 103 |

| SMILES | nuclei count |
| --- | --- |
| COc1cc2c(Oc3ccc(NC(=O)C4(C(=O)Nc5ccc(F)cc5)CC4)cc3F)ccnc2cc1OCCCN1CCOCC1 | 12 |
| CC1=CC(=O)C(C(C)C)=CC1=O [Thymoquinone] | 103 |
| O=C(/C=C/c1ccc(O)cc1)CC(=O)/C=C/c1ccc(O)cc1 [bis-demethoxycurcumin] | 93.2 |
| C[S+]([O-])c1ccc(-c2nc(-c3ccc(F)cc3)c(-c3ccncc3)[nH]2)cc1 (stereo unspecified) | 96.8 and 103 |
| COc1ccccc1Oc1c(NS(=O)(=O)c2ccc(C(C)(C)C)cc2)nc(-c2ncccn2)nc1OCCO [Bosentan] | 112 |
| Nc1ccccc1S(N)(=O)=O [2-Aminobenzenesulfonamide] | 109 |
| OC[C@H]1O[C@@H](n2cnc3c(NC4CCCC4)ncnc32)[C@H](O)[C@@H]1O [N6-Cyclopentyladenosine] | 103 |
| CCOc1nc2cccc(C(=O)OCc3oc(=O)oc3C)c2n1Cc1ccc(-c2ccccc2-c2noc(=O)[nH]2)cc1 [Azilsartan Medoxomil (TAK-491)] | 101 |
| O=C(O)c1cn(C2CC2)c2cc(N3CCNCC3)c(F)cc2c1=O [Ciprofloxacin hydrochloride monohydrate] | 102 |
| CC1(C)CCC(C)(C)c2cc(C3(c4ccc(C(=O)O)cc4)OCCO3)ccc21 | 94.2 |
| COc1ccc(NS(=O)(=O)c2sc3ccc(Cl)cc3c2C)cc1N1CCNCC1 | 98.3 |
| COc1ccc(-c2cc(=S)ss2)cc1 [Anethole-trithione] | 109 |
| COc1ccc(-c2cc(=S)ss2)cc1 [Anethole trithione] | 112 |
| C#CCN[C@@H]1CCc2ccccc21 [Rasagiline mesylate] | 103 |
| C1COC(NC(C2CC2)C2CC2)=N1 [Rilmenidine hemifumarate] | 103 |
| C1COC(NC(C2CC2)C2CC2)=N1 [Rilmenidine] | 93.6 |
| COc1cc(OC2CCN(C)CC2)ccc1Nc1ncc2c(n1)n(C1CCCC1)c(=O)n2C | 87.4 |
| N#C/C(=C\c1ccc(O)c(O)c1)C(=O)OCCc1cccs1 | 99 |
| CC(NC(=O)c1ccccc1/N=C/c1c(O)ccc2ccccc12)c1ccccc1 (stereo unspecified) [Sirtinol] | 98.8 ± 2.1 |
| Cc1cccc(-c2[nH]c(C(C)(C)C)nc2-c2ccc3c(c2)OCO3)n1 | 99 |
| NC1CCN(c2cccc(Cl)n2)CC1 | 103 |
| CC(C)(OCc1nn(Cc2ccccc2)c2ccccc12)C(=O)O [Bindarit] | 103 |
| Cc1ccc(S(=O)(=O)N[C@@H](Cc2ccccc2)C(=O)CCl)cc1 | 77.2 |
| COc1cc(C(=O)NCc2ccc(OCCN(C)C)cc2)cc(OC)c1OC [Trimethobenzamide hydrochloride] | 94.5 |
| CCCN1CCCC[C@H]1C(=O)Nc1c(C)cccc1C [Ropivacaine HCl] | 103 |
| CC(C)NCC(O)COc1ccc(CCOCC2CC2)cc1 (stereo unspecified) [Betaxolol hydrochloride] | 99.5 ± 6.9 |

| SMILES | nuclei count |
| --- | --- |
| Cc1c(C(=O)NN2CCCCC2)nn(-c2ccc(Cl)cc2Cl)c1-c1ccc(I)cc1 | 92.9 |
| CCc1nc(N)nc(N)c1-c1ccc(Cl)cc1 [Pyrimethamine] | 88.8 |
| CC(=O)[C@@]1(O)CC[C@H]2[C@@H]3C[C@H](C)C4=CC(=O)C=C[C@]4(C)[C@@]3(F)[C@@H](O)C[C@@]21C [Fluorometholone] | 87.7 |
| CCN(C(=O)c1c(O)c2c(Cl)cccc2n(C)c1=O)c1ccccc1 | 99.5 |
| CN1CC(=O)N2[C@H](c3ccc4c(c3)OCO4)c3[nH]c4ccccc4c3C[C@@H]2C1=O [Tadalafil (Cialis)] | 98.8 |
| C1CCC(C(CC2CCCCN2)C2CCCCC2)CC1 (stereo unspecified) [Perhexiline maleate] | 5.66 |
| COc1cc2c(cc1OC)CC(=O)N(CCCN(C)C[C@H]1Cc3cc(OC)c(OC)cc31)CC2 [Ivabradine HCl (Procoralan)] | 97.9 |
| C[C@H]1c2cccc(O)c2C(=O)C2=C(O)[C@]3(O)C(=O)C(C(N)=O)=C(O)[C@@H](N(C)C)[C@@H]3[C@@H](O)[C@@H]21 [Doxycycline HCl] | 106 |
| C[C@H]1c2cccc(O)c2C(=O)C2=C(O)[C@]3(O)C(=O)C(C(N)=O)=C(O)[C@@H](N(C)C)[C@@H]3[C@@H](O)[C@@H]21 [Doxycycline hydrochloride] | 108 |
| N[C@@H](CSC(c1ccccc1)(c1ccccc1)c1ccccc1)C(=O)O [S-Trityl-L-cysteine] | 95 |
| Cc1c(C(=O)NN2CCCCC2)nn(-c2ccc(Cl)cc2Cl)c1-c1ccc(Cl)cc1 | 85.5 |
| O=C(CCCN1C(=O)c2cccc3cccc(c23)C1=O)NO [Nullscript] | 95.8 |
| C[C@](N)(Cc1ccc(O)c(O)c1)C(=O)O [Methyldopa (L,-)] | 103 |
| COC(=O)/C=C/c1cccc(N(Cc2ccc(-c3ccc(N(C)C)cc3)cc2)C(=O)C2CCCCC2)c1 [Fexaramine] | 100 |
| c1cnc(N2CCN(Cc3ccc4c(c3)OCO4)CC2)nc1 [Piribedil] | 105 |
| c1cnc(N2CCN(Cc3ccc4c(c3)OCO4)CC2)nc1 [Piribedil hydrochloride] | 103 |
| CCOC(=O)c1cnc2ccc(-c3cncc(NS(=O)(=O)c4ccccc4)c3)cn12 | 18.8 |
| Clc1ccc(C(Cn2ccnc2)OCc2ccsc2Cl)c(Cl)c1 (stereo unspecified) [Tioconazole] | 100 |
| CCCC1C(=O)N2C(N(C)C)=Nc3ccc(C)cc3N2C1=O (stereo unspecified) [Azapropazone] | 103 |
| O=C(O)CNC(=O)C(CS)Cc1ccccc1 (racemic) [Thiorphan] | 88.1 |
| O=C(O)CNC(=O)C(CS)Cc1ccccc1 (racemic) [DL-Thiorphan] | 113 |
| N=C(N)c1ccc(N2CCN(C3CCN(CC(=O)O)CC3)CC2)cc1 | 104 |
| CCOC(=O)O[C@]1(C(=O)OCCl)CC[C@H]2[C@@H]3CCC4=CC(=O)C=C[C@]4(C)[C@H]3[C@@H](O)C[C@@]21C [Loteprednol etabonate] | 102 |
| CCc1cc2c(cc1N1CCC(N3CCOCC3)CC1)C(C)(C)c1[nH]c3cc(C#N)ccc3c1C2=O | 103 |
